Data as given in the antibiotic and cytotoxicity screens of Wong et al. (2023).
This is one part of the list.

These molecules were tested on S. aureus RN4220 (assay: growth inhibition call (relative growth <= 0.2)). Details: 50 µM.

Growth inhibition call, inactive:
C[C@H](CO)N1C[C@H](C)[C@H](CN(C)Cc2ccc(Cl)c(Cl)c2)Oc2ccc(NC(=O)CCCCCC(=O)Nc3ccccc3N)cc2CC1=O
CCc1nc2ccc(C(=O)NC3CCN(Cc4ccccc4)CC3)cn2c1N(C)CCN1CCOCC1
c1ccc(CNC2CCCCC2)nc1
C=CCC[C@H](Cc1ccc(F)cc1)C(=O)O[C@H](CNC(=O)[C@@H](CC=C)CC(=O)N(CCO)Cc1ccccc1)c1ccccc1
COCC(=O)Nc1ccc2c(c1)C(=O)N(C)[C@@H]1CC[C@H](CC(=O)NCc3ccccc3Cl)O[C@@H]1CO2
C[C@H]1CCCCO[C@@H](CN(C)C(=O)Nc2cccc3ccccc23)[C@@H](C)CN([C@@H](C)CO)C(=O)c2cc(NC(=O)c3ccncc3)ccc2O1
C[C@H]1CN([C@@H](C)CO)C(=O)c2cc(NC(=O)Nc3ccc(F)cc3)ccc2O[C@@H]1CN(C)Cc1ccc(-c2ccccc2)cc1
COc1ccc([C@@H](NC(=O)C2CCN(Cc3ccc(Oc4ccccc4)cc3)CC2)c2ccccc2C)cn1
C[C@@H]1CN([C@@H](C)CO)C(=O)Cc2cc(NC(=O)Cc3cn(C)c4ccccc34)ccc2O[C@H]1CN(C)C(=O)Nc1ccc(C(F)(F)F)cc1
C[C@@H]1CN([C@H](C)CO)C(=O)c2cc(NC(=O)Nc3ccc4c(c3)OCO4)ccc2O[C@@H](C)CCCCO[C@@H]1CN(C)S(=O)(=O)c1ccc(Cl)cc1
